PubChem BioAssay AID504333 (National Center for Advancing Translational Sciences (NCATS), 2011)
Hit rate of the full screen: of about 360,000 compounds, about 16,000 (4.4%) were called active. The inconclusive results got no clear call from the source; some entries with a clear call stand among them for comparison. Calls follow the shape of the dose curve; as a rule, active = well fitted inhibition curve with a large enough effect; inconclusive = small, poorly fitted or top-dose-only effect; inactive = no such curve, though single readings can be large or run the other way. A potency beside an inconclusive call is a rough fit, not a confirmed value.

Target: Bromodomain adjacent to zinc finger domain protein 2B (Homo sapiens) (UniProt Q9UIF8)
Test: qHTS Assay for Inhibitors of BAZ2B; also: nearly all actives have a fitted effect of over 60% in size
Conditions: AlphaScreen BAZ2B-H3K14Ac peptide displacement; activity change, negative = inhibition: at 114 µM (top of the series) unless noted
How it was run: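 Inhibition is scored as reduced AlphaScreen emission. The BAZ2B/b-H3(5-23)K14Ac complex (50 nM each) in PBS pH 7.4, 0.01% Tween-20 meets compound (up to 110 uM) for 30 min at RT before bead addition.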
% is scaled to controls: 0 for no effect and ±100 for the full control effect; potency is read from the fitted curve at half-maximal effect; tags tell the direction and shape of the fitted curve.

UniProt Q9UIF8, sequence (Q9UIF8 whole entry, looked up, the tested form may be a part): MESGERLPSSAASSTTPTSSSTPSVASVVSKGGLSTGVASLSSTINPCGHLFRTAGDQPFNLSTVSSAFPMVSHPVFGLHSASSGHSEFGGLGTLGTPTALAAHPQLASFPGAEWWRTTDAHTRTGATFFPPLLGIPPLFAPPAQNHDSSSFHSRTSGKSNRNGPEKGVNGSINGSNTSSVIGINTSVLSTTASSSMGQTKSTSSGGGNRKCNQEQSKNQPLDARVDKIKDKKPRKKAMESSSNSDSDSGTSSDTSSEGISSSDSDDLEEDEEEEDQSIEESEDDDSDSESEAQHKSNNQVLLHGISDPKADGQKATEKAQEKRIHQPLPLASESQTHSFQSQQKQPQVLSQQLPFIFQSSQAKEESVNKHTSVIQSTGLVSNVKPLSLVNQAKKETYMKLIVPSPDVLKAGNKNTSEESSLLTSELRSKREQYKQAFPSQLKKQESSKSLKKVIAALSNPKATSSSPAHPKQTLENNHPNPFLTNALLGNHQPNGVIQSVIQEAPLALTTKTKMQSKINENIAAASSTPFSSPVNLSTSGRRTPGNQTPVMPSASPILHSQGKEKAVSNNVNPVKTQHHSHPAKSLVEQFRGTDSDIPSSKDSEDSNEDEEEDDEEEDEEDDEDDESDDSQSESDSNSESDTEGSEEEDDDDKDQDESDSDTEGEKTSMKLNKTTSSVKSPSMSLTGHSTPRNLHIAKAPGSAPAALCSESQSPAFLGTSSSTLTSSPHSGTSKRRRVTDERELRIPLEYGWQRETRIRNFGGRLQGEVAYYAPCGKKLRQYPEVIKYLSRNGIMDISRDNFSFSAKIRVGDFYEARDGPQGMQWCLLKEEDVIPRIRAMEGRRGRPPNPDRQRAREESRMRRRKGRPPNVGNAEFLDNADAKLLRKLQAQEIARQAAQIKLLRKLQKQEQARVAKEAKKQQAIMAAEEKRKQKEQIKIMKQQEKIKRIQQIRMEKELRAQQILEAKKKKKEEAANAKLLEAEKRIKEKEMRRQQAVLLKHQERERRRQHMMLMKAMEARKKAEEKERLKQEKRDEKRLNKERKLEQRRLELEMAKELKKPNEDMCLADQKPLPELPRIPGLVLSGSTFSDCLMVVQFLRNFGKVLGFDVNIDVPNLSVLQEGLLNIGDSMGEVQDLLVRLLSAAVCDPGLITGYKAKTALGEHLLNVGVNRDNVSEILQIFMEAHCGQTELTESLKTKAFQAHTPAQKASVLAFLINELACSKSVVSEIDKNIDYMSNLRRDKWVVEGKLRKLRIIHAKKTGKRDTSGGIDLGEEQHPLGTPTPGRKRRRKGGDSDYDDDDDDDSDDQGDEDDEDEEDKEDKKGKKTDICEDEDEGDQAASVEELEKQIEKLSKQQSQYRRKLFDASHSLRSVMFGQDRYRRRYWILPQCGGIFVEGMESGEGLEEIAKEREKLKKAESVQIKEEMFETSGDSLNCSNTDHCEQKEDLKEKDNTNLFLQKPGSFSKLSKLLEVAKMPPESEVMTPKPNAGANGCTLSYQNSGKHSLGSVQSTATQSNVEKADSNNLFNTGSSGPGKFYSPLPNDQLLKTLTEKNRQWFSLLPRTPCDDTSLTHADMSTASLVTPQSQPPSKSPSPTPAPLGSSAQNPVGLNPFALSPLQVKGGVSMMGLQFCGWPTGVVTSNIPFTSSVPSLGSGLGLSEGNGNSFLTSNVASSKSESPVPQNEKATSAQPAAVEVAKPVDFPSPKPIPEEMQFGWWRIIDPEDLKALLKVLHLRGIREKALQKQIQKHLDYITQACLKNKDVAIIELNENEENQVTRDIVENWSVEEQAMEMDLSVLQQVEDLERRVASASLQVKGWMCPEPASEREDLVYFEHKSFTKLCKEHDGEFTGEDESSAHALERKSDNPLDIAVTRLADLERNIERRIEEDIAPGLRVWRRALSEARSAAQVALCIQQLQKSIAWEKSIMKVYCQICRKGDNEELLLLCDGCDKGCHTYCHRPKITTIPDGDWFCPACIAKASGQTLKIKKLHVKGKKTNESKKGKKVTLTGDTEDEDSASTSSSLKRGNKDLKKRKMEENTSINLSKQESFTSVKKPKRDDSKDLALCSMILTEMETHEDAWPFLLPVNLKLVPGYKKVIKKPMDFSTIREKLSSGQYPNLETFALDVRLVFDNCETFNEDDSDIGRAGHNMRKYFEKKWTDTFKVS

Row | SMILES | Potency | activity change, negative = inhibition
1 | COc1cccc(CNc2ccc(N3CCC(C)CC3)cc2)c1OC | active: 39.8 µM | –
2 | Cc1ccc2cc(CN(CCN(C)C)C(=S)Nc3ccccc3)c(=O)[nH]c2c1C | inconclusive: 79.4 µM [inhibitor, single point] | –
3 | S=c1[nH]nc(-c2ccncc2)n1/N=C/C=C/c1ccco1 | active: 50.1 µM | –
4 | CCCCN(C(=O)COC(=O)c1ccc(C=O)cc1)c1c(N)n(CCC)c(=O)[nH]c1=O | – | inactive: -0.612%
5 | C=Cc1ccc(Cn2c(C(=O)O)c(CNCc3ccccc3)c3ccc(OC)cc32)cc1 | inconclusive: 20 µM [inhibitor, full curve] | –
6 | COC(=O)c1cccc(NC(=S)NCc2ccc(Cl)cc2)c1 | – | inactive: -3.14%
7 | COC(=O)c1c(-c2cccs2)csc1NC(=O)c1cc(OC)c(OC)c(OC)c1 | inconclusive: 79.4 µM [inhibitor, single point] | –
8 | COc1ccc(-n2ccn(CC(=O)Nc3ccc(C)c(C)c3)c(=O)c2=O)cc1OC | inconclusive: 89.1 µM [inhibitor, single point] | –
9 | O=C(Nc1cccc(F)c1)C1CCCN(c2cnccn2)C1 (centres undefined) | inconclusive: 70.8 µM [inhibitor, single point] | –
10 | O=C(NC(=S)Nc1c(F)cc(F)cc1Br)c1ccc2c(c1)OCCO2 | inconclusive: 79.4 µM [inhibitor, partial curve] | –
11 | O=c1[nH]c(/C=C/c2ccc(Cl)cc2Cl)c([N+](=O)[O-])c(=O)[nH]1 | active: 56.2 µM | –
12 | CC(=O)Nc1ccc2nc(SCC(=O)NCCOc3ccccc3)sc2c1 | inconclusive: 89.1 µM [inhibitor, single point] | –
13 | Clc1ccc(CNc2ccc(CNc3ncn[nH]3)cc2)cc1 | inconclusive: 44.7 µM [inhibitor, partial curve] | –
14 | CN(C)CCOc1ccccc1Cc1ccccc1 | inconclusive: 35.5 µM [inhibitor, partial curve] | –
15 | COc1cc(Cl)c(NC(=O)CN(C)S(=O)(=O)c2ccc3c(c2)CCCC(=O)N3)c(OC)c1 | – | inactive: 2.36% [at 57.1 µM]
16 | Cc1ccc(NCCC(=O)c2cccs2)cc1 | inconclusive: 44.7 µM [inhibitor, partial curve] | –
17 | CCOc1ccccc1Nc1nnc(Cc2ccccc2Cl)c(=O)[nH]1 | inconclusive: 89.1 µM [inhibitor, single point] | –
18 | CC(C)CN(CC(C)C)C(=S)Nc1ccc(Cl)cc1 | – | inactive: -28.7%
19 | O=C(CSc1nnc(-c2ccncc2)n1-c1ccc(F)cc1)NC(=O)NCc1ccco1 | inconclusive: 70.8 µM [inhibitor, single point] | –
20 | Cc1c(NC(=O)CSc2nc3ccc(Cl)cc3[nH]2)c(=O)n(-c2ccccc2)n1C | inconclusive: 89.1 µM [inhibitor, single point] | –
21 | [O-]/[N+](=C\c1ccccc1)c1ccc(Br)cc1 | inconclusive: 89.1 µM [inhibitor, single point] | –
22 | O=C1C=C(O)CC(c2ccco2)C1 (centres undefined) | inconclusive: 79.4 µM [inhibitor, single point] | –
23 | CC/C(=N\NC(=O)c1nnn(-c2nonc2N)c1-c1cccc(OC)c1)c1ccc(C)cc1 | inconclusive: 79.4 µM [inhibitor, single point] | –

Row | SMILES | Potency | activity change, negative = inhibition
24 | NS(=O)(=O)c1ccc(CCNC(=O)COC(=O)CN2C(=O)C3CCCCC3C2=O)cc1 (centres undefined) | – | inactive: -2.25%
25 | Cc1ccn2c(-c3csc(NCc4ccco4)n3)c(C)nc2c1 | inconclusive: 79.4 µM [inhibitor, single point] | –
26 | CS(=O)(=O)Nc1ccc(C(=O)Nc2ccccc2C(=O)NCc2ccco2)cc1 | inconclusive: 70.8 µM [inhibitor, single point] | –
27 | COCCCNCCCOc1ccc(C)cc1Br | active: 50.1 µM | –
28 | CCc1cc(C(=O)N2CCN(C(=O)c3ccccc3)CC2)sc1C | – | inactive: -4.28%
29 | O=C(O)CCCn1cc(NC(=O)COc2cc(F)ccc2[N+](=O)[O-])cn1 | inconclusive: 79.4 µM [inhibitor, single point] | –
30 | CC(C)(C)C(=O)N1CCN(c2ccc(Cl)cc2[N+](=O)[O-])CC1 | inconclusive: 79.4 µM [inhibitor, single point] | –
31 | CCCCCn1c(-c2cccc(C)c2)nc2ccccc21 | – | inactive: 115%
32 | COC(=O)c1c(O)c2ccccc2[nH]c1=O | inconclusive: 89.1 µM [inhibitor, single point] | –
33 | CC(=O)c1c(C)[nH]c(C(=O)OC2CCOC2=O)c1C (centres undefined) | inconclusive: 89.1 µM [inhibitor, single point] | –
34 | O=C(O)/C=C\C(=O)Nc1ccccc1N1CCN(c2ccccc2)CC1 | inconclusive: 44.7 µM [inhibitor, partial curve] | –
35 | COc1ccc(NS(=O)(=O)c2ccc(NC(=S)NC(=O)C(C)C)cc2)cc1 | inconclusive: 44.7 µM [inhibitor, partial curve] | –
36 | Cc1ccccc1NC(=O)Cn1cnc2c(oc3nc4c(cc32)CCCC4)c1=O | inconclusive: 89.1 µM [inhibitor, single point] | –
37 | O=C(C1CC1)N1CCN(c2nc3c(F)cc(F)cc3s2)CC1 | – | inactive: -0.757%
38 | Cc1ccnc(N/N=C/c2ccco2)n1 | – | inactive: 4.32%
39 | CC(C)c1ccccc1NC(=O)c1ccc2ncsc2c1 | inconclusive: 89.1 µM [inhibitor, single point] | –
40 | CCCCCN1C(C(=O)c2ccccc2)=C(NC(C)=O)c2ccccc2S1(=O)=O | inconclusive: 56.2 µM [inhibitor, single point] | –
41 | O=C(Oc1coc(CSc2nnc(NC(=O)C3CC3)s2)cc1=O)c1c(F)cccc1F | inconclusive: 79.4 µM [inhibitor, single point] | –
42 | Cc1cc(C)cc(C(=O)Nc2nnc3n2CCS3)c1 | inconclusive: 89.1 µM [inhibitor, single point] | –
43 | CCOC(=O)c1ccc(NC(=O)CSc2nccn2Cc2ccc(OC)cc2)cc1 | inconclusive: 14.1 µM [inhibitor, full curve] | –
44 | Cc1cc(NC(=O)CCC2CCCC2)no1 | – | inactive: 7.09%
45 | COc1ccc(OCc2nc3c4c(-c5ccc(OC)cc5)c(-c5ccc(OC)cc5)oc4ncn3n2)cc1 | – | inactive: -8.92%
46 | O=C(c1cc(F)ccc1F)C1CCCN(Cc2cccn2-c2ccccn2)C1 (centres undefined) | inconclusive: 79.4 µM [inhibitor, single point] | –

Row | SMILES | Potency | activity change, negative = inhibition
47 | CCN(CC)C(=O)COc1ccc(N(C)S(=O)(=O)c2ccc(NC(C)=O)cc2)cc1 | inconclusive: 89.1 µM [inhibitor, single point] | –
48 | CCOC(=O)N=Nc1c2ccccc2c2nc3no[nH]c3nc12 | inconclusive: 10 µM [inhibitor, full curve, poor fit] | –
49 | COC(=O)C1=C(C)N=C2SC(C#N)=C(N)N2C1c1ccc(OCc2ccccc2)cc1 (centres undefined) | inconclusive: 89.1 µM [inhibitor, single point] | –
50 | CC(=O)Nc1ccc(NC(=O)CCC(=O)c2ccc(C)cc2)cc1 | – | inactive: 2.72%
51 | Cc1cc(C)c(Cn2c3ccccc3c3cnn(CC(=O)NCCN4CCOCC4)c(=O)c32)c(C)c1 | inconclusive: 39.8 µM [inhibitor, partial curve] | –
52 | CC[n+]1c(/C=C/c2c[nH]c3ccccc23)ccc2cc(C)ccc21 | inconclusive: 44.7 µM [inhibitor, partial curve] | –
53 | CCOc1ccccc1Nc1ccc(C(=O)O)cc1N | inconclusive: 70.8 µM [inhibitor, single point] | –
54 | Cc1ccc(NC2CCCN(C(=O)CSc3ccccn3)C2)cc1C (centres undefined) | inconclusive: 70.8 µM [inhibitor, partial curve] | –
55 | CC1CCN(c2ccccc2NC(=O)c2cc([N+](=O)[O-])ccc2N2CCOCC2)CC1 | inconclusive: 7.08 µM [inhibitor, full curve] | –
56 | CCCCn1c(N)c(N(CC(C)C)C(=O)c2cc(=O)[nH]c3ccccc23)c(=O)[nH]c1=O | inconclusive: 0.708 µM [inhibitor, full curve, poor fit] | –
57 | CCOC(=O)CN1C(=O)COc2ccc(Cl)cc21 | – | inactive: 11.8%
58 | CCO[C@@H]1OC(C(=O)N2CCN(Cc3ccc4c(c3)OCO4)CC2)=C[C@H](C2CCCCC2)[C@H]1CCCO | inconclusive: 70.8 µM [inhibitor, single point] | –
59 | O=C(c1cnn2c(C(F)(F)F)cc(-c3cccs3)nc12)N1CCOCC1 | – | inactive: 10.8%
60 | CC(C)NS(=O)(=O)c1cc(F)ccc1CN1C(=O)c2cccnc2C1=O | inconclusive: 89.1 µM [inhibitor, single point] | –
61 | N#Cc1c(SCc2c(Cl)cccc2Cl)nc(N)[nH]c1=S | inconclusive: 50.1 µM [inhibitor, partial curve] | –
62 | Cc1nc2ccccc2c(=O)n1/N=C/c1c(O)ccc2ccccc12 | active: 25.1 µM | –
63 | CCCCN1CN(S(=O)(=O)c2ccc(OC)cc2)c2nc3ccccc3nc21 | inconclusive: 44.7 µM [inhibitor, partial curve] | –
64 | CCN1C(=S)SC(=O)C1=C1C=C(C)N(CCO)C(C)=C1 | inconclusive: 50.1 µM [inhibitor, partial curve] | –
65 | Cc1ccc(-n2c(C)nc3oc4ccccc4c(=O)c3c2=O)cc1 | active: 44.7 µM | –
66 | Cc1ccc(S(=O)(=O)NNC(=O)CCC(=O)Nc2ccc(C)c(C)c2)cc1 | inconclusive: 100 µM [inhibitor, single point] | –
67 | Oc1cc(Cc2ccccc2)cnc1CN1CCCCC1 | inconclusive: 50.1 µM [inhibitor, partial curve] | –
68 | COc1ccccc1NC(=O)c1cc2c(CO)cnc(C)c2oc1=Nc1ccc(OC)c(OC)c1 | inconclusive: 79.4 µM [inhibitor, single point] | –
69 | O=C(CSc1nnc(NC(=O)c2ccccc2F)s1)NCc1ccco1 | inconclusive: 79.4 µM [inhibitor, single point] | –
